One experiment concerns HSkMC. Kind of experiment: cytotoxicity call (relative viability < 0.9). Particulars: 10 µM.
A further experiment concerns HepG2. As to the kind of experiment: cytotoxicity call (relative viability < 0.9). Particulars: 10 µM.
For the next experiment, the system named is S. aureus RN4220. As to the kind of experiment: growth inhibition call (relative growth <= 0.2). Particulars: 50 µM.

The structures appear in SMILES notation. The list shows a part of the results.

As to `C=CC(=O)N1C[C@H]2CC[C@H](O)[C@H]2C1`, the cytotoxicity call with HSkMC and in the experiment with HepG2 was “inactive” in each case. The growth inhibition call in the experiment with S. aureus RN4220 is “inactive”.

As for `COc1ccccc1C#Cc1ccc2c(c1)O[C@H](CN(C)C(C)=O)[C@H](C)CN([C@@H](C)CO)S2(=O)=O`, the cytotoxicity call in the experiment on HSkMC and in the experiment on HepG2 was “inactive” throughout. Also, in the experiment on S. aureus RN4220, the growth inhibition call is “inactive”.

As to `Cc1ccc(S(=O)(=O)Nc2ccc3c(c2)C(=O)N([C@H](C)CO)C[C@H](C)[C@@H](CN(C)C(=O)NC(C)C)O3)cc1`, the cytotoxicity call in the experiment on HSkMC and in the experiment with HepG2 was “inactive” in each case. In the experiment on S. aureus RN4220, the growth inhibition call was “inactive”.

In the case of `C[C@H](CO)N1C[C@H](C)[C@H](CN(C)C(=O)Nc2cccc3ccccc23)Oc2c(NC(=O)NC3CCCCC3)cccc2C1=O`, the cytotoxicity call in the experiment on HSkMC and with HepG2 was “inactive” each time. In the experiment with S. aureus RN4220, the growth inhibition call was “inactive”.

On to `COc1cc(C(=O)N2CCN(CCN3C(=O)c4cccc5cccc(c45)C3=O)CC2)cc(OC)c1OC`, for which the cytotoxicity call in the experiment with HSkMC and in the experiment on HepG2 was “inactive” each time. In addition, the growth inhibition call in the experiment on S. aureus RN4220 is “inactive”.

As to `COc1ccc(S(=O)(=O)Nc2ccc3c(c2)CC(=O)N([C@@H](C)CO)C[C@H](C)[C@@H](CN(C)C(=O)NC(C)C)O3)cc1`, the cytotoxicity call in the experiment on HSkMC and in the experiment on HepG2 was “inactive” in each case. Further, the growth inhibition call in the experiment with S. aureus RN4220 is “inactive”.

As to `CN(C)CC(=O)N[C@H]1C=C[C@H](CC(=O)NCCN2CCCCC2)O[C@H]1CO`, the cytotoxicity call in the experiment on HSkMC and in the experiment with HepG2 was “inactive” in each case. Also, the growth inhibition call with S. aureus RN4220 was “inactive”.

With `Cc1noc(C)c1S(=O)(=O)N(C)C[C@H]1Oc2ccc(NC(=O)Cn3cnnn3)cc2C(=O)N([C@@H](C)CO)C[C@H]1C`, the cytotoxicity call in the experiment with HSkMC and with HepG2 was “inactive” in each case. Also, the growth inhibition call in the experiment on S. aureus RN4220 was “inactive”.

Turning to `COCC(=O)N1C[C@H](C)[C@H](OC)CN(C)C(=O)c2cc(NC(=O)Nc3ccccc3)ccc2OC[C@H]1C`, the cytotoxicity call in the experiment on HSkMC and in the experiment on HepG2 was “inactive” each time. Besides, the growth inhibition call with S. aureus RN4220 was “inactive”.

`O=C(CN1CCOCC1)NCC[C@@H]1CC[C@@H](NC(=O)c2ccccc2F)[C@@H](CO)O1`: the cytotoxicity call with HSkMC was “active”. Further, the cytotoxicity call in the experiment with HepG2 is “inactive”. For the same compound, the growth inhibition call with S. aureus RN4220 is “inactive”.

With `Cc1noc(C)c1NC(=O)N(C)C[C@@H]1OCCCC[C@H](C)Oc2ccc(NC(=O)Cc3ccccc3)cc2C(=O)N([C@@H](C)CO)C[C@H]1C`, the cytotoxicity call in the experiment with HSkMC and in the experiment with HepG2 was “inactive” each time. In addition, the growth inhibition call in the experiment on S. aureus RN4220 was “inactive”.

As to `C[C@@H]1CN([C@@H](C)CO)S(=O)(=O)c2ccc(C#Cc3ccccc3)cc2O[C@H]1CN(C)S(=O)(=O)c1ccccc1F`, the cytotoxicity call with HSkMC and in the experiment on HepG2 was “inactive” throughout. Moreover, in the experiment with S. aureus RN4220, the growth inhibition call is “inactive”.

Take `Cc1ccc(CN)s1`: the cytotoxicity call in the experiment on HSkMC and with HepG2 was “inactive” each time. Moreover, the growth inhibition call in the experiment with S. aureus RN4220 was “inactive”.

Take `Cc1cnc2c(c1N1CCOCC1)c(=O)n(C)c(=O)n2C`: the cytotoxicity call in the experiment on HSkMC and in the experiment with HepG2 was “inactive” in each case. Also, in the experiment on S. aureus RN4220, the growth inhibition call was “inactive”.

Take `C[C@H](CO)N1C[C@H](C)[C@H](CN(C)C(=O)Nc2cccc3ccccc23)Oc2ccc(NC(=O)NC3CCCCC3)cc2C1=O`: the cytotoxicity call with HSkMC and with HepG2 was “inactive” each time. Further, the growth inhibition call in the experiment on S. aureus RN4220 is “inactive”.

For `CCCNC(=O)N1C[C@@H](O)COC[C@@H]2O[C@@H](CC(=O)N3CCOCC3)CC[C@H]21`, the cytotoxicity call in the experiment on HSkMC and with HepG2 was “inactive” each time. The growth inhibition call with S. aureus RN4220 is “inactive”.

As for `C[C@@H]1CN([C@@H](C)CO)C(=O)c2cc(NC(=O)CCN3CCOCC3)ccc2O[C@H]1CN(C)Cc1ccc2c(c1)OCO2`, the cytotoxicity call in the experiment on HSkMC and in the experiment on HepG2 was “inactive” each time. For the same compound, the growth inhibition call in the experiment on S. aureus RN4220 is “inactive”.

Consider `CN1CCN(C(=O)C[C@@H]2C=C[C@@H](NS(=O)(=O)c3cccc(F)c3)[C@@H](CO)O2)CC1`, for which the cytotoxicity call in the experiment with HSkMC and with HepG2 was “inactive” throughout. In addition, in the experiment on S. aureus RN4220, the growth inhibition call is “inactive”.

For the compound `COc1ccc([Si](C)(C)[C@H]2[C@H](CC(=O)N3Cc4ccccc4C[C@H]3CO)O[C@@]3(C(=O)N(Cc4cccc(N5CCCCC5=O)c4)c4ccccc43)[C@@H]2C)cc1`, the cytotoxicity call in the experiment on HSkMC and in the experiment with HepG2 was “inactive” in each case. Further, in the experiment with S. aureus RN4220, the growth inhibition call was “inactive”.

Take `C[C@H]1CCCCO[C@H](CN(C)Cc2ccc(C(F)(F)F)cc2)[C@@H](C)CN([C@@H](C)CO)C(=O)c2cc(NC(=O)CCCN(C)C)ccc2O1`: in the experiment on HSkMC, the cytotoxicity call is “inactive”. In addition, the cytotoxicity call in the experiment on HepG2 is “active”. Besides, the growth inhibition call in the experiment on S. aureus RN4220 is “inactive”.

With `CCCN(C)C[C@H]1Oc2cc(C#Cc3ccccc3OC)ccc2S(=O)(=O)N([C@H](C)CO)C[C@H]1C`, the cytotoxicity call in the experiment on HSkMC and in the experiment with HepG2 was “inactive” throughout. Moreover, the growth inhibition call in the experiment with S. aureus RN4220 was “inactive”.

Turning to `COc1ccc(CN(C)C[C@H]2OCCCC[C@@H](C)Oc3ccc(NC(=O)C4CCCCC4)cc3C(=O)N([C@H](C)CO)C[C@H]2C)cc1`, the cytotoxicity call with HSkMC and in the experiment on HepG2 was “inactive” each time. Moreover, the growth inhibition call in the experiment on S. aureus RN4220 was “inactive”.

For the compound `O=C(NO)c1cn(-c2ccc(C[C@H]3C(=O)O[C@@H](Cc4ccccc4)[C@H]4[C@@H]5C=CCCC=C5CN43)cc2)nn1`, the cytotoxicity call in the experiment on HSkMC was “inactive”. For the same compound, in the experiment on HepG2, the cytotoxicity call is “active”. Further, the growth inhibition call with S. aureus RN4220 was “inactive”.

On to `Cc1cc(C(=O)Nc2cccc3c2O[C@@H](CN(C)S(=O)(=O)c2ccccc2)[C@@H](C)CN([C@H](C)CO)C3=O)n(C)n1`, for which the cytotoxicity call in the experiment on HSkMC (human skeletal muscle cells) and in the experiment with HepG2 was “inactive” throughout. The growth inhibition call with S. aureus RN4220 was “inactive”.

Take `C[C@H]1CCCCO[C@H](CN(C)C(=O)CCCN(C)C)[C@@H](C)CN([C@@H](C)CO)C(=O)c2cc(NS(C)(=O)=O)ccc2O1`: the cytotoxicity call in the experiment with HSkMC and with HepG2 was “inactive” in each case. Besides, the growth inhibition call in the experiment with S. aureus RN4220 was “inactive”.

`Cc1noc(C)c1S(=O)(=O)N(C)C[C@H]1OCCCC[C@H](C)Oc2ccc(NC(=O)Nc3ccccc3)cc2C(=O)N([C@H](C)CO)C[C@H]1C`: the cytotoxicity call in the experiment with HSkMC and with HepG2 was “inactive” each time. Moreover, in the experiment on S. aureus RN4220, the growth inhibition call is “inactive”.

The values above are taken from the antibiotic and cytotoxicity screens of Wong et al. (2023).
